Experimental data taken from PMC4336329 (PLoS ONE, 2015).
Among all 310,000 compounds or so, about 2,200 (0.71%) showed an effect of 50% or more. Effects have a minus sign here. The list shows a part of the results.

Target: human ether-à-go-go-related gene (hERG) potassium channel (human, UniProt Q12809)
Experiment: primary screen, population patch clamp on CHO cells stably expressing hERG

Sequence of human ether-à-go-go-related gene (hERG) potassium channel (Q12809 whole entry, looked up): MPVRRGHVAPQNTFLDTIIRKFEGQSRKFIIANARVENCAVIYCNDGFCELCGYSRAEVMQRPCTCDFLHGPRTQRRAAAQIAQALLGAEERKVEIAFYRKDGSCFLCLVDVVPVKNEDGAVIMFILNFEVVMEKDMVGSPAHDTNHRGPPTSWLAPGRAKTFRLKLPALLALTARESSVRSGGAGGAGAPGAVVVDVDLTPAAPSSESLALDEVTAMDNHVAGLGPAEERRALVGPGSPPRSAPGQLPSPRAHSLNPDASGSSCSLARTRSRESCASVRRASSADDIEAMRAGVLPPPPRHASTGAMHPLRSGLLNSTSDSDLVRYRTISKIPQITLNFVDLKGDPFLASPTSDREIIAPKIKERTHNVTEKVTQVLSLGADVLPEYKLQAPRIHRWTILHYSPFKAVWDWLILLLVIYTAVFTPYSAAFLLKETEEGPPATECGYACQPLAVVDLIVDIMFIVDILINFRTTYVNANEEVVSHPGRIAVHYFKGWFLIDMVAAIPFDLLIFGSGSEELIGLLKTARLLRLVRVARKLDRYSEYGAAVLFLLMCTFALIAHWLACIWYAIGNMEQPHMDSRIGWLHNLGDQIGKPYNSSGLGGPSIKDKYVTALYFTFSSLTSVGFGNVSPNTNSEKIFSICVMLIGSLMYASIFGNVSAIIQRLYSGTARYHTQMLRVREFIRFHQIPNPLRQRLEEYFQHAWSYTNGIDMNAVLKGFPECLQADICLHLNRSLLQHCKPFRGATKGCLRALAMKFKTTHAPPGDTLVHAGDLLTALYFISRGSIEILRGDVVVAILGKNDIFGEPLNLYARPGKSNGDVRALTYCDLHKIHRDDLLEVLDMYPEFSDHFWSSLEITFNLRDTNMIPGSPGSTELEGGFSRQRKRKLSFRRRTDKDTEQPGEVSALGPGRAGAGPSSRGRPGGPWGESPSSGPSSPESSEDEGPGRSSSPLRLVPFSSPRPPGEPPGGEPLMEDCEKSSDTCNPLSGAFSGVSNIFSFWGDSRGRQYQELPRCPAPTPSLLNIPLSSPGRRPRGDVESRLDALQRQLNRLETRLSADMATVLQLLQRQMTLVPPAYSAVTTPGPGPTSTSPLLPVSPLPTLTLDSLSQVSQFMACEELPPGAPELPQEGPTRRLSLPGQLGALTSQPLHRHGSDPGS

Row | Compound | hERG current change (%, negative = inhibition) at 1uM [%]
1 | Cc1ccc(S(=O)(=O)c2nc(C)c3c(n2)CCC3)cc1 | 7.89
2 | OCC(O)CN(c1ccccc1)c1ccccc1 (centres unmarked) | 4.9
3 | O=C1/C(=C/c2cccnc2)Cc2ccc(Cl)cc21 | 3.47
4 | Cc1ccc(C(C[N+](=O)[O-])Sc2ccc(N)cc2)cc1 (centres unmarked) | 5.03
5 | CSc1ccc(Cl)c(C(=O)Nc2ccc(N3CCOCC3)cc2)c1 | -0.184
6 | COc1ccc(CNCCc2c[nH]c3ccccc23)c(OC)c1C.O=C(O)C(=O)O | -11.7
7 | c1c(C2CCCCC2)n[nH]c1CN1CCCCC1 | -14.2
8 | Cl.c1ccc(COC(CN2CCCCCC2)CN2CCCCCC2)cc1 | 2.72
9 | Cc1ccccc1CNC(=O)CCCn1ncn2c(cc3occc32)c1=O | 13.7
10 | O=C(Nc1nnc(-c2ccccc2F)s1)C1CCCO1 (centres unmarked) | -0.0951
11 | COc1cccc(/C=C/C(=C2/C(=O)N(c3ccccc3)N=C2C)c2ccccc2)c1OC | -0.438
12 | CN(CCC#N)CC(=O)Nc1ccc(NC(=O)CN(C)CCC#N)cc1 | 4.5
13 | COCCn1cnc2c1c(=O)n(Cc1ccccc1C#N)c(=O)n2Cc1ccccc1 | 8.74
14 | Cc1cccc(C(=O)OC(C)CN2CCOCC2)c1.Cl (centres unmarked) | 7.05
15 | CC(=O)Nc1ccc(NC(=O)CCc2nc3sc4c(c3c(=O)[nH]2)CCCC4)cc1 | 4.95
16 | O=C(Nc1cccnc1)Nc1ccccc1Cl | 3.18
17 | Cc1ccccc1NC(=O)CSc1ccc2nnc(-c3ccccn3)n2n1 | 7.85
18 | Cc1nc(C(=O)Nc2ccc(Cl)cc2)sc1C1(C)CC(c2ccccc2)=NO1 (centres unmarked) | 7.26
19 | O=C(COc1ccccc1Cc1ccccc1)Nc1cccnc1 | -2.54
20 | O=C(O)c1ccccc1C(=O)Nc1ccc(S(=O)(=O)N2CCCC2)cc1 | 15.4
21 | Cc1ccc(OCc2cc(C(=O)NC3CCCCC3)no2)cn1 | 16.8
22 | CCOC(=O)CSc1nc2sc3c(c2c(=O)n1-c1ccc(C)cc1)CCN(C)C3 | 8.97
23 | CCc1cc(S(N)(=O)=O)cc(CC)c1NC(C)=O | 10.4

Row | Compound | hERG current change (%, negative = inhibition) at 1uM [%]
24 | CC1Cc2ccccc2N1C(=O)COC(=O)/C=C/c1cccc(F)c1 (centres unmarked) | 7.2
25 | CC1=C(C(=O)OCc2ccccc2)C(c2cccc([N+](=O)[O-])c2)NC(=O)N1CCCCCC(=O)O (centres unmarked) | 12.8
26 | CNC(=S)NNC(=O)Cc1ccc(O)cc1 | 3.47
27 | COc1ccc(-c2c(C)c3ccc(O)cc3oc2=O)cc1 | 25.8
28 | CC(C)C(=O)NNC(=O)CC(=O)Nc1ccccc1C(=O)O | 5.62
29 | O=C(/C=C/c1ccco1)NC(=S)Nc1ccccn1 | 0.309
30 | COc1ccc(S(=O)(=O)NC(N)=NCCc2ccccc2)cc1 | 4.07
31 | Cc1cc(C)n(C(=O)c2sc3cc(F)ccc3c2Cl)n1 | 3.96
32 | CCN(CC)CCNC(=O)c1cc2c(-c3cccc(OC)c3)nn(C)c2s1 | 9.13
33 | CC#CCCCC(=O)Nc1ccc(C(=O)O)cc1 | 4.55
34 | Cc1cc(NC(=O)CN2C(=O)NC3(CCCCCC3)C2=O)ccc1Br | 8.47
35 | CCCCOc1ccc(C(=O)NCc2ccco2)cc1 | 12
36 | N#Cc1nc(COc2ccc(Br)cc2)oc1NCCCn1ccnc1 | -29
37 | CC1CCCCC1NC(=O)c1cc2ccccc2o1 (centres unmarked) | 0.12
38 | COCCCN=CC1=C(O)CC(C)(C)CC1=O | -6.98
39 | Fc1ccc(Br)cc1C1C=C(c2cccnc2)Nc2ncnn21 (centres unmarked) | 1.69
40 | O=C1CC2(CCCCC2)Oc2ccc(OCC(=O)N3CCOCC3)cc21 | 9.23
41 | CCc1ccc(NC(=O)CSc2nnc(-c3ccco3)o2)cc1 | 9.08
42 | CC(OC(=O)c1cccc(Cl)c1)C(=O)NC1CCCCC1C (centres unmarked) | 5.38
43 | CCC(c1nnnn1Cc1ccc2c(c1)OCO2)N1CCN(CC)CC1.Cl (centres unmarked) | 2.65
44 | Nc1c(C(=O)Nc2ccc3c(c2)OCCO3)nnn1Cc1ccccc1Cl | 1.06
45 | COc1ccc(C(CC(=O)O)NC(=O)OC(C)(C)C)cc1 (centres unmarked) | 16.7
46 | CC1(C)CC(=O)C(/C=N/c2ccccn2)=C(O)C1 | 7.35

Row | Compound | hERG current change (%, negative = inhibition) at 1uM [%]
47 | C/C(=N\Nc1nccnc1Cl)c1ccc(F)cc1 | 3.43
48 | COc1ccc(OC)c(NC(=O)c2ccc3c(c2)OCO3)c1 | 15.4
49 | N#CCCN(C(=O)COC(=O)c1cc(S(=O)(=O)N2CCOCC2)ccc1Cl)c1ccc(F)cc1 | -4.53
50 | CCCOc1cccc(C2C(C(=O)c3cccs3)=C(O)C(=O)N2Cc2cccnc2)c1 (centres unmarked) | 6.6
51 | CCOCCCNC(=O)CN1C(=O)/C(=C/c2ccccc2)Sc2ccccc21 | 5.17
52 | COc1cccc2[nH]c(C(=O)NCCCN3CCCC3=O)cc12 | -17.1
53 | Cc1cc(C)nc(Nc2ncc(O)n2-c2ccc(C)c(C)c2)n1 | 13.2
54 | CCOC(=O)C1CCN(C(=O)c2cccc(Cl)c2)CC1 | 0.863
55 | COC(=O)c1ccc(C(=O)OC)c(NC(=S)N2CCN(c3cc(Cl)ccc3C)CC2)c1 | 3.63
56 | O=C(COc1ccc(Cl)cc1Br)N1CCN(c2ccccc2)CC1 | 4.15
57 | COc1cccc(CNC(=O)c2cccnc2Sc2ccc(C)cc2C)c1 | 6.77
58 | CCOc1ccc(OCc2ccc(C(=O)Nc3cccnc3)o2)cc1 | -5.38
59 | CCc1ccc(C(C)NC(=O)c2ccc(F)cc2)cc1 (centres unmarked) | 5.79
60 | CCc1ccc(C(C(=O)NCc2ccc(F)cc2)N(C(=O)c2csnn2)C2CC2)cc1 (centres unmarked) | 4.8
61 | COc1cccc2cc(C(C)N(CCCN3CCOCC3)C(=S)Nc3c(C)cccc3C)oc12 (centres unmarked) | 1.44
62 | CSCC[C@H](NC(=O)C1CCN(C(=O)[C@H](Cc2ccccc2)NS(=O)(=O)c2ccc(C)cc2)CC1)C(=O)O | 8.25
63 | COc1cccc(C(=O)Nc2ccc3[nH]ncc3c2)c1OC | 5.29
64 | O=C1CCC(C(=O)N2CCCC2)CN1CCc1cccc(F)c1 (centres unmarked) | 7.17
65 | CCOC(=O)C1=C(C)NC(=S)NC1c1cc(C)sc1C (centres unmarked) | 14
66 | O=C(O)COc1cccc2nsnc12 | 6.88
67 | CC1(c2ccc3c(c2)OCCO3)NC(=O)N(CC(=O)Nc2ccccc2)C1=O (centres unmarked) | 8.36
68 | CC(=O)c1cccc(N(CC(=O)NCC2CCCO2)C(=O)CCC(=O)Nc2cc(C)on2)c1 (centres unmarked) | 9.35
69 | CCOC(=O)Cn1c2ccc(C)cc2c2nc(C)sc21 | 7.65

Row | Compound | hERG current change (%, negative = inhibition) at 1uM [%]
70 | CCCCn1c(N)c(N(CC(C)C)C(=O)CSCC(=O)Nc2cccc(C)c2)c(=O)[nH]c1=O | 2.34
71 | COc1ccc(C(=O)/C(=C\c2ccco2)N2C=CC=CC2=C(C#N)C#N)cc1 | -13
72 | c1ccn(-c2ccc(-c3ccn[nH]3)cc2)c1 | 13.6
73 | COc1cc(OC)c2c(N)c(C#N)c(C(F)(F)C(F)(F)F)nc2c1 | 3.29
74 | CCN(CC(=O)Nc1c(F)cccc1F)C(=O)/C=C/c1ccc(C)cc1 | 9.41
75 | O=C(N/C(=C/c1ccco1)C(=O)N1CCOCC1)c1ccccc1Br | 11.5
76 | O=C(CCn1c(=O)c2cccn2c2ccc(F)cc21)NCCc1ccccc1 | 18.4
77 | COc1ccc(C2CC(=O)N3CN(c4ccccc4F)CSC3=C2C#N)cc1OC (centres unmarked) | 18.6
78 | CC(C)Sc1nc2c(c(=O)[nH]c(=O)n2C)n1CCc1ccccc1 | -2.44
79 | CCOC(=O)c1nnc(-c2cccs2)nc1Oc1ccccc1C(=O)OC | 14.4
80 | S=c1[nH]c(-c2ccc(Cl)cc2)cs1 | 16.2
81 | CC(C)C(OC(=O)c1ccco1)C(=O)NC1CCCC1 (centres unmarked) | 10.7
82 | COc1ccccc1N(CC(=O)NC1CCCCC1)C(=O)c1cnn(C(C)C)c1 | 1.25
83 | Nc1nnc2c(n1)CCCC2 | -8.6
84 | CCOc1ccc(S(=O)(=O)NCCC(=O)N2CCCCCCC2)cc1 | 6.86
85 | O=C(CSc1nc(-c2ccncc2)nn1CC(=O)N1CCCCC1)NC1CCCC1 | -9.75
86 | CCCC(=O)Nc1nnc(S(=O)(=O)N(C)Cc2ccco2)s1 | 10.8
87 | Cc1cc(C)c([N+](=O)[O-])cc1NCC(=O)N1CCN(c2ccccc2)CC1 | 17.5
88 | CC(C)COc1ccc(-c2cc(C(=O)NN)[nH]n2)cc1 | 11.4
89 | O=c1c2ccccc2nnn1CSc1nnc(-c2cccnc2)n1-c1ccccc1F | 12.1
90 | CCOc1ccc(CCNC(=O)CS(=O)Cc2nc(-c3ccc(OC)c(OC)c3)oc2C)cc1OCC (centres unmarked) | 10
91 | CN1CCN(C(=S)Nc2ccc(S(N)(=O)=O)cc2)CC1 | 12.8
92 | COc1ccc(OC)c(CNc2ncc(-c3cccc([N+](=O)[O-])c3)n2C)c1.O=C(O)C(=O)O | -11.2
